# Test results from paper PMC9911399, “Two distinct binding modes provide the RNA-binding protein RbFox with extraordinary sequence specificity”.
# Where a chain is given by its changes, count along the chain named. Some of the results follow.
# T1: RBFOX1 RRM RbFoxmut (Fox-RRM*) (Homo sapiens, UniProt Q9NWB1 109-208, R118D;E147R;N151S;E152T)
# T1 sequence: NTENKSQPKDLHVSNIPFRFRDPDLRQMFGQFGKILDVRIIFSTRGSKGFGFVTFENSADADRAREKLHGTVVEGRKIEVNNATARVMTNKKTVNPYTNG
# B1: AGGUUGU (DNA:RNA)
# RNA: GGGAGACCGGAAUUCAGAUUGUCCAGGUUGUUUAAAUCCCGUCGUAGCCACCA
# DNA 1: CAATCTGAATTCCGGTCTCCC
# DNA 2: TGGTGGCTACGACGGGATT
# B2: UCGGGGU (DNA:RNA)
# RNA: B1 RNA with A25U, G26C, U28G, U29G
# DNA 1: CAATCTGAATTCCGGTCTCCC
# DNA 2: TGGTGGCTACGACGGGATT
# B3: UCUUCUC (DNA:RNA)
# RNA: B1 RNA with A25U, G26C, G27U, U29C, G30U, U31C
# DNA 1: CAATCTGAATTCCGGTCTCCC
# DNA 2: TGGTGGCTACGACGGGATT
# B4: UGGGGGG (DNA:RNA)
# RNA: B1 RNA with A25U, U28G, U29G, U31G
# DNA 1: CAATCTGAATTCCGGTCTCCC
# DNA 2: TGGTGGCTACGACGGGATT
# B5: GCAGGGC (DNA:RNA)
# RNA: B1 RNA with A25G, G26C, G27A, U28G, U29G, U31C
# DNA 1: CAATCTGAATTCCGGTCTCCC
# DNA 2: TGGTGGCTACGACGGGATT
# B6: UGGCGUC (DNA:RNA)
# RNA: B1 RNA with A25U, U28C, U29G, G30U, U31C
# DNA 1: CAATCTGAATTCCGGTCTCCC
# DNA 2: TGGTGGCTACGACGGGATT
# B7: ACACCAG (DNA:RNA)
# RNA: B1 RNA with G26C, G27A, U28C, U29C, G30A, U31G
# DNA 1: CAATCTGAATTCCGGTCTCCC
# DNA 2: TGGTGGCTACGACGGGATT
# B8: CACCAGU (DNA:RNA)
# RNA: B1 RNA with A25C, G26A, G27C, U28C, U29A
# DNA 1: CAATCTGAATTCCGGTCTCCC
# DNA 2: TGGTGGCTACGACGGGATT
# B9: AGAAUUC (DNA:RNA)
# RNA: B1 RNA with G27A, U28A, G30U, U31C
# DNA 1: CAATCTGAATTCCGGTCTCCC
# DNA 2: TGGTGGCTACGACGGGATT
# Target: T1, RBFOX1 RRM RbFoxmut (Fox-RRM*)
# Experiment: EMSA; HiTS-Eq, 1 nM pool, 10 min; buffer printed only for the single-RNA assays: 10 mM Tris pH 7.5, 150 mM NaCl, 3.4 mM EDTA, 0.001% NP-40, 30 C
# Settings: tags: His6 N-terminal (pET28a); label: 5' 32P
# How it was run: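 Purified RbFox RRM, wild type or mutant, was incubated for 10 min in 50 µL with 1 nM of a 5′-radiolabelled RNA pool carrying 7 randomized nucleotides, whose flanks were annealed to DNA oligonucleotides, over a series of increasing protein concentrations. Unbound RNA was resolved on 8% native PAGE, cut out, reverse-transcribed, barcoded by PCR and sequenced on an Illumina HiSeq 2500. Relative association constants were derived from changes in read counts for each RNA species versus the control reaction and normalised to the cognate motif.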
row,Binder,binding signal
1,B1,0.332 KA relative to UGCAUGU
2,B2,0.121 KA relative to UGCAUGU
3,B3,0.0635 KA relative to UGCAUGU
4,B4,0.0903 KA relative to UGCAUGU
5,B5,0.0579 KA relative to UGCAUGU
6,B6,0.16 KA relative to UGCAUGU
7,B7,0.113 KA relative to UGCAUGU
8,B8,0.0817 KA relative to UGCAUGU
9,B9,0.0834 KA relative to UGCAUGU
